Laboratory results from paper PMC3417418 (2012).

Legend:
CXCR3 [1] = target: T1, CXCR3 (Homo sapiens, UniProt P49682); experiment: competition with 125I-CXCL10 on L1.2 cells
T1 chain: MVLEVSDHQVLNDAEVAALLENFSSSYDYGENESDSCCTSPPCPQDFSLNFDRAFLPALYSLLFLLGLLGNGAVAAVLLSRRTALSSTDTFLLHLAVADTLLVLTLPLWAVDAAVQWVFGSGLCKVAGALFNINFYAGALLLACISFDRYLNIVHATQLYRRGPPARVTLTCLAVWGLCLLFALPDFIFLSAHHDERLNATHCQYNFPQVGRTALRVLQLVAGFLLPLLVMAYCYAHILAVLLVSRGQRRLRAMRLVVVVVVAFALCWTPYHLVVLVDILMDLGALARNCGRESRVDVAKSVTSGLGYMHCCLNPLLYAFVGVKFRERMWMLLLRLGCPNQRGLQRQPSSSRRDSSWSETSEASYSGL

CXCR3 [2] = target: T1, CXCR3; experiment: homologous competition 125I radioligand binding on L1.2 cells
CXCR3 [3] = target: T2, CXCR3 (Homo sapiens, UniProt P49682); experiment: as above
T2 chain: T1 chain with D278N

CXCR3 [4] = target: T3, CXCR3 (Homo sapiens, UniProt P49682); experiment: as above
T3 chain: T1 chain with D195N

CXCR3 [5] = target: T4, CXCR3 (Homo sapiens, UniProt P49682); experiment: as above
T4 chain: T1 chain with E196Q

IC50 (CXCR3 [1]): 2 nM | Kd (CXCR3 [2]): 4.7 nM | Kd (CXCR3 [3]): 30.9 nM | Kd (CXCR3 [4]): 4.7 nM | Kd (CXCR3 [5]): 7.6 nM
B1: CXCL10 (protein)
chain: not shown

Residue numbers refer to the chain shown, from its start.
